The other results are listed elsewhere or left out.
Tests used:
HSkMC = human skeletal muscle cells; experiment: cytotoxicity call (relative viability < 0.9); settings: 10 µM
HepG2 = experiment: cytotoxicity call (relative viability < 0.9); settings: 10 µM
S. aureus RN4220 = experiment: growth inhibition call (relative growth <= 0.2); settings: 50 µM

Structure (SMILES) | cytotoxicity call (HSkMC) | cytotoxicity call (HepG2) | growth inhibition call (S. aureus RN4220)
Cn1cnc(S(=O)(=O)N[C@H]2C=C[C@H](CC(=O)Nc3ccccc3)O[C@@H]2CO)c1 | inactive | inactive | inactive
COc1ccc(NC(=O)Nc2ccc3c(c2)C(=O)N([C@H](C)CO)C[C@@H](C)[C@H](CN(C)C(=O)Cc2ccccc2)OCCCC[C@H](C)O3)cc1 | inactive | inactive | inactive
COCCOC(=O)N1C(=O)[C@@]2(c3cc(C#CCC(C(=O)OC)C(=O)OC)ccc31)[C@H](c1ccc(O)cc1)N1[C@H](c3ccccc3)[C@H](c3ccccc3)OC(=O)[C@H]1[C@@H]2C(=O)N1CCc2cc(OC)c(OC)cc2C1 | inactive | inactive | inactive
C[C@@H]1CCCCO[C@@H](CN(C)Cc2ccc(C(=O)O)cc2)[C@@H](C)CN([C@@H](C)CO)C(=O)c2cc(NS(=O)(=O)c3ccccc3)ccc2O1 | inactive | inactive | inactive
CCS(=O)(=O)N1CCn2cc(Cn3cncn3)nc2C1 | inactive | inactive | inactive
COc1ccccc1C#Cc1cnc2c(c1)C(=O)N([C@H](C)CO)C[C@@H](C)[C@H](CN(C)C(=O)CC1CC1)O2 | inactive | inactive | inactive
Cc1noc(C)c1S(=O)(=O)Nc1ccc2c(c1)CC(=O)N([C@H](C)CO)C[C@H](C)[C@H](CN(C)Cc1ccc3c(c1)OCO3)O2 | inactive | inactive | inactive
Cc1ccc(S(=O)(=O)N(C)C[C@H]2Oc3ccc(NS(=O)(=O)c4c(C)noc4C)cc3C(=O)N([C@@H](C)CO)C[C@@H]2C)cc1 | inactive | inactive | inactive
O=C(O)c1cccnc1 | inactive | inactive | inactive
C[C@H]1CN([C@@H](C)CO)C(=O)c2cccc(NC(=O)c3ccncc3)c2O[C@@H]1CN(C)Cc1ccc(-c2ccccc2)cc1 | inactive | inactive | inactive
Cc1ccc(S(=O)(=O)N(C)C[C@@H]2OCCCC[C@@H](C)Oc3ccc(NS(C)(=O)=O)cc3C(=O)N([C@H](C)CO)C[C@H]2C)cc1 | inactive | inactive | inactive
COc1cc(CO)cc(I)c1O[C@H]1C=C(C(=O)NCCO)C[C@@H](NC2CCCCCC2)[C@@H]1O | inactive | active | inactive
CC(C)C(=O)N1CC[C@H]2CN(CC(=O)N(C)C)S(=O)(=O)[C@@H]2CC1 | inactive | inactive | inactive
CN(C)Cc1cn(CC[C@@H]2CC[C@H](N)[C@H](CO)O2)nn1 | inactive | inactive | inactive
C[C@@H]1CCCCO[C@@H](CN(C)S(C)(=O)=O)[C@@H](C)CN([C@H](C)CO)C(=O)c2cc(N(C)C)ccc2O1 | inactive | inactive | inactive
CC(C)CC(=O)N[C@H](C(=O)N[C@H](C(=O)N[C@@H](CC(C)C)[C@@H](O)CC(=O)N[C@@H](C)C(=O)N[C@@H](CC(C)C)[C@@H](O)CC(=O)O)C(C)C)C(C)C | inactive | inactive | inactive
C[C@@H]1CN([C@@H](C)CO)C(=O)c2cc(NS(C)(=O)=O)ccc2O[C@H]1CN(C)C(=O)NC1CCCCC1 | inactive | inactive | inactive
CC(=N)NCCC[C@H](N)C(=O)O | inactive | inactive | inactive
O=C([O-])c1cc(=O)c2c(OCC(O)COc3cccc4oc(C(=O)[O-])cc(=O)c34)cccc2o1.[Na+].[Na+] | inactive | inactive | inactive
C[C@@H]1CN([C@@H](C)CO)S(=O)(=O)c2ccc(Br)cc2O[C@H]1CN(C)C(=O)Cc1cccnc1 | inactive | inactive | inactive
COC(=O)[C@H](Cc1ccccc1)N1CC2=CCCC=C[C@H]2[C@@H]1[C@@H](O)CCn1cc(CCC(=O)NO)nn1 | inactive | inactive | inactive
C[C@@H]1CN([C@@H](C)CO)C(=O)CCCn2nncc2CO[C@@H]1CN(C)S(=O)(=O)c1ccc(-n2cccn2)cc1 | inactive | inactive | inactive
COc1ccc(NC(=O)Nc2ccc3c(c2)C(=O)N([C@H](C)CO)C[C@H](C)[C@@H](CN(C)C(=O)Nc2cccc4ccccc24)OCCCC[C@H](C)O3)cc1 | inactive | inactive | inactive
C[C@@H]1CN([C@@H](C)CO)C(=O)Cc2cc(NS(=O)(=O)c3ccc(F)cc3)ccc2O[C@H]1CN(C)S(=O)(=O)c1ccccc1 | inactive | inactive | inactive
CC(C)NC(=O)N(C)C[C@H]1Oc2ccc(NC(=O)Cn3cnnn3)cc2C(=O)N([C@H](C)CO)C[C@@H]1C | inactive | inactive | inactive
NC1=NCCN1CC(=O)O | inactive | active | inactive
C[C@@H]1CN([C@@H](C)CO)C(=O)c2c(c3ccccc3n2C)-c2ccccc2CO[C@H]1CN(C)C(=O)[C@H](C)c1ccccc1 | inactive | inactive | inactive
C[C@H]1CN([C@@H](C)CO)C(=O)Cc2cc(NC(=O)c3ccncc3)ccc2O[C@H]1CN(C)S(=O)(=O)c1cccs1 | inactive | inactive | inactive
